Source: patent US20230414771A1, “PREPARATION AND USE OF IMMUNOSTIMULATORY CONJUGATED COMPLEXES FOR TARGETED DELIVERY AND ACTIVATION” (YAFEI SHANGHAI BIOLOGY MEDICINE SCIENCE & TECHNOLOGY CO., …, priority 2020, published 2023)

Assay: Water solubility test (observation and HPLC)
Format: physicochemical
Conditions: thermodynamic from solid; lyophilized compound dissolved in water; checked by observation and HPLC (>95%)
Protocol: The compounds prepared in accordance with the examples of the disclosure and the reference compounds C1, C2, C3 and C4 were lyophilized (−70° C.).

## COc1cccc2c1C(=O)c1c(O)c3c(c(O)c1C2=O)C[C@@](O)(C(=O)CO)C[C@@H]3O[C@@H]1C[C@H](NC(=O)OCc2ccc(NC(=O)[C@@H](CC(N)=O)NC(=O)[C@@H](C)NC(=O)[C@@H](C)NC(=O)CCOCCOCCNC(=O)CCN3C(=O)C=CC3=O)cc2)[C@@H](O)[C@H](C)O1 [QHL-086-epirubicin]
  solubility: > 20000 µg/mL

## COc1cccc2c1C(=O)c1c(O)c3c(c(O)c1C2=O)C[C@@](O)(C(=O)CO)C[C@@H]3O[C@H]1C[C@H](NC(=O)[C@H](CC(C)C)NC(=O)[C@H](CC(N)=O)NC(=O)[C@H](C)NC(=O)[C@H](C)NC(=O)CCOCCOCCNC(=O)CCCN2C(=O)C=CC2=O)[C@H](O)[C@H](C)O1 [QHL-099-DOX] ({Butanoyl(4-maleimido)-PEG2}-AANL-{Doxorubicin(3'-N)})
  solubility: > 20000 µg/mL

## C[C@H](NC(=O)CCCCCN1C(=O)C=CC1=O)C(=O)N[C@@H](C)C(=O)N[C@@H](CC(N)=O)C(=O)Nc1ccc(COC(=O)OCC(=O)[C@]2(O)CCC3[C@H]4CCC5=CC(=O)C=C[C@@]5(C)C4C(=O)C[C@]32C)cc1 (some centres unmarked) [QHL-140-prednisone]
  solubility: > 10000 µg/mL

## C[C@H](NC(=O)CCOCCOCCN1C(=O)C=CC1=O)C(=O)N[C@@H](C)C(=O)N[C@H](CC(N)=O)C(=O)Nc1ccc(COC(=O)OCC(=O)[C@]2(O)CCC3[C@H]4CCC5=CC(=O)C=C[C@@]5(C)C4C(=O)C[C@]32C)cc1 (some centres unmarked) [QHL-005-prednisone]
  solubility: > 10000 µg/mL

## COc1cccc2c1C(=O)c1c(O)c3c(c(O)c1C2=O)C[C@@](O)(C(=O)CO)C[C@@H]3O[C@H]1C[C@H](NC(=O)[C@H](CC(C)C)NC(=O)[C@H](CC(N)=O)NC(=O)[C@H](C)NC(=O)[C@H](C)NC(=O)CCOCCOCCOCCN2C(=O)C=CC2=O)[C@H](O)[C@H](C)O1 [QHL-010-DOX] (X1-AANL-{Doxorubicin(3'-N)})
  solubility: > 10000 µg/mL

## CC(C)C[C@H](NC(=O)[C@H](CC(N)=O)NC(=O)[C@H](C)NC(=O)[C@H](C)NC(=O)CCOCCOCCOCCOCCOCCOCCNC(=O)CCCN1C(=O)C=CC1=O)C(=O)N1CC2(C1)C(=O)[O][Pt-2]([NH3+])([NH3+])[O]C2=O [QHL-108-N-CBP] ({Butanoyl(4-maleimido)-PEG6}-AANL-X4)
  solubility: > 10000 µg/mL

## C[C@H](NC(=O)CCOCCOCCOCCNC(=O)CCN1C(=O)C=CC1=O)C(=O)N[C@@H](C)C(=O)N[C@@H](CC(N)=O)C(=O)Nc1ccc(COC(=O)OCC(=O)[C@@]2(O)CCC3C4CCC5=CC(=O)C=C[C@]5(C)C4C(=O)C[C@@]32C)cc1 (some centres unmarked) [QHL-089-prednisone]
  solubility: > 10000 µg/mL

## COc1cccc2c1C(=O)c1c(O)c3c(c(O)c1C2=O)C[C@@](O)(C(=O)CO)C[C@@H]3O[C@@H]1C[C@H](NC(=O)C(CC(C)C)NC(=O)[C@@H](CC(N)=O)NC(=O)[C@@H](C)NC(=O)[C@@H](C)NC(=O)CCOCCOCCNC(=O)CCN2C(=O)C=CC2=O)[C@@H](O)[C@H](C)O1 (some centres unmarked) [QHL-087-epirubicin]
  solubility: > 10000 µg/mL

## COc1cccc2c1C(=O)c1c(O)c3c(c(O)c1C2=O)C[C@@](O)(C(=O)CO)C[C@@H]3O[C@H]1C[C@H](NC(=O)[C@H](CC(C)C)NC(=O)[C@H](CC(N)=O)NC(=O)[C@H](C)NC(=O)[C@H](C)NC(=O)CCOCCOCCOCCOCCN2C(=O)C=CC2=O)[C@H](O)[C@H](C)O1 [QHL-011-DOX] (MaleimidoPEG4propanoyl-AANL-{Doxorubicin(3'-N)})
  solubility: > 15000 µg/mL

## CO[C@@]12[C@@H]3N[C@@H]3CN1C1=C(C(=O)C(NC(=O)OCc3ccc(NC(=O)[C@@H](CC(N)=O)NC(=O)[C@@H](C)NC(=O)[C@@H](C)NC(=O)CCOCCOCCNC(=O)CCN4C(=O)C=CC4=O)cc3)=C(C)C1=O)[C@@H]2COC(N)=O [QHL-086-mitomycin]
  solubility: > 20000 µg/mL

## CC(NC(=O)CCOCCOCCOCCOCCNC(=O)CCCCN1C(=O)C=CC1=O)C(=O)NC(C)C(=O)NC(CC(N)=O)C(=O)Nc1ccc(COC(=O)N2CC3(C2)C(=O)[O][Pt-2]([NH3+])([NH3+])[O]C3=O)cc1 (centres unmarked) [QHL-104-N-CBP]
  solubility: > 20000 µg/mL

## COc1cccc2c1C(=O)c1c(O)c3c(c(O)c1C2=O)C[C@@](O)(C(=O)CO)C[C@@H]3O[C@H]1C[C@H](NC(=O)[C@H](CC(C)C)NC(=O)[C@H](CC(N)=O)NC(=O)[C@H](C)NC(=O)[C@H](C)NC(=O)[C@@H](NC(=O)CCCCCN2C(=O)C=CC2=O)[C@@H](C)O)[C@H](O)[C@H](C)O1 [QHL-130-DOX] ({Hexanoyl(6-maleimido)}-TAANL-{Doxorubicin(3'-N)})
  solubility: > 2000 µg/mL

## COc1cccc2c1C(=O)c1c(O)c3c(c(O)c1C2=O)C[C@@](O)(C(=O)CO)C[C@@H]3O[C@H]1C[C@H](NC(=O)[C@H](CC(C)C)NC(=O)[C@H](CC(N)=O)NC(=O)[C@H](C)NC(=O)[C@H](C)NC(=O)[C@H](CCC(=O)O)NC(=O)CCOCCOCCOCCOCCNC(=O)CCCN2C(=O)C=CC2=O)[C@H](O)[C@H](C)O1 [QHL-075-DOX] ({Butanoyl(4-maleimido)-PEG4}-EAANL-{Doxorubicin(3'-N)})
  solubility: > 25000 µg/mL

## CC(NC(=O)CCOCCOCCOCCOCCOCCOCCNC(=O)CCCN1C(=O)C=CC1=O)C(=O)NC(C)C(=O)NC(CC(N)=O)C(=O)Nc1ccc(COC(=O)N2CC3(C2)C(=O)[O][Pt-2]([NH3+])([NH3+])[O]C3=O)cc1 (centres unmarked) [QHL-107-N-CBP]
  solubility: > 10000 µg/mL

## COc1cccc2c1C(=O)c1c(O)c3c(c(O)c1C2=O)C[C@@](O)(C(=O)CO)C[C@@H]3O[C@H]1C[C@H](NC(=O)[C@H](CC(C)C)NC(=O)[C@H](CC(N)=O)NC(=O)[C@H](C)NC(=O)[C@H](C)NC(=O)[C@H](CCC(=O)O)NC(=O)CCCCCN2C(=O)C=CC2=O)[C@H](O)[C@H](C)O1 [QHL-117-DOX] ({Hexanoyl(6-maleimido)}-EAANL-{Doxorubicin(3'-N)})
  solubility: > 10000 µg/mL

## C[C@@H](NC(=O)CCOCCOCCNC(=O)CCN1C(=O)C=CC1=O)C(=O)N[C@H](C)C(=O)N[C@H](CC(N)=O)C(=O)Nc1ccc(COC(=O)N(C)CCNC(=O)c2cc(Oc3ccc(NC(=O)Nc4ccc(Cl)c(C(F)(F)F)c4)c(F)c3)ccn2)cc1 [QHL-086-compound b]
  solubility: > 20000 µg/mL

## COc1cccc2c1C(=O)c1c(O)c3c(c(O)c1C2=O)C[C@@](O)(C(=O)CO)C[C@@H]3O[C@H]1C[C@H](NC(=O)[C@H](CC(C)C)NC(=O)[C@H](CC(N)=O)NC(=O)[C@H](C)NC(=O)[C@H](C)NC(=O)[C@H](CC(N)=O)NC(=O)CCCCCN2C(=O)C=CC2=O)[C@H](O)[C@H](C)O1 [QHL-133-DOX] ({Hexanoyl(6-maleimido)}-NAANL-{Doxorubicin(3'-N)})
  solubility: > 2000 µg/mL

## CC(NC(=O)CCOCCOCCOCCNC(=O)CCCN1C(=O)C=CC1=O)C(=O)NC(C)C(=O)NC(CC(N)=O)C(=O)Nc1ccc(COC(=O)N2CC3(C2)C(=O)[O][Pt-2]([NH3+])([NH3+])[O]C3=O)cc1 (centres unmarked) [QHL-101-N-CBP]
  solubility: > 20000 µg/mL

## C[C@H](NC(=O)CCOCCOCCOCCOCCOCCOCCN1C(=O)C=CC1=O)C(=O)N[C@@H](C)C(=O)NC(CC(N)=O)C(=O)Nc1ccc(COC(=O)OCC(=O)[C@]2(O)CCC3[C@H]4CCC5=CC(=O)C=C[C@@]5(C)C4C(=O)C[C@]32C)cc1 (some centres unmarked) [QHL-008-prednisone]
  solubility: > 10000 µg/mL

## COc1cccc2c1C(=O)c1c(O)c3c(c(O)c1C2=O)C[C@@](O)(C(=O)CO)C[C@@H]3O[C@H]1C[C@H](NC(=O)[C@H](CC(C)C)NC(=O)[C@H](CC(N)=O)NC(=O)[C@H](C)NC(=O)[C@H](C)NC(=O)[C@H](CC(=O)O)NC(=O)CCOCCOCCOCCOCCNC(=O)CCN2C(=O)C=CC2=O)[C@H](O)[C@H](C)O1 [QHL-054-DOX] ({Propanoyl(3-maleimido)-PEG4}-DAANL-{Doxorubicin(3'-N)})
  solubility: > 25000 µg/mL

Where a SMILES comes first, the peptide text is derived from it. The star is where a group is joined. Doxorubicin(3'-N) = COc1cccc2c1C(=O)c1c(O)c3c(c(O)c1C2=O)C[C@@](O)(C(=O)CO)C[C@@H]3O[C@H]1C[C@H](N*)[C@H](O)[C@H](C)O1; MaleimidoPEG4propanoyl = O=C1C=CC(=O)N1CCOCCOCCOCCOCCC(=O)*; X4 = [NH3+][Pt-2]1([NH3+])[O]C(=O)C2(CN(*)C2)C(=O)[O]1; Hexanoyl(6-maleimido) = O=C1C=CC(=O)N1CCCCCC(=O)*; Butanoyl(4-maleimido) = O=C1C=CC(=O)N1CCCC(=O)*; Propanoyl(3-maleimido) = O=C1C=CC(=O)N1CCC(=O)*; X1 = O=C1C=CC(=O)N1CCOCCOCCOCCC(=O)*; PEG6 = NCCOCCOCCOCCOCCOCCOCCC(=O)O; PEG4 = NCCOCCOCCOCCOCCC(=O)O; PEG2 = NCCOCCOCCC(=O)O
